About 16,000 (7.3%) of roughly 220,000 compounds were called active. Inconclusive results, whose numbers are uncertain, are shown with a selection of clear calls. Calls follow the shape of the dose curve; as a rule, active = well fitted inhibition curve with a large enough effect (not every such curve was filed as active); inconclusive = small, poorly fitted or top-dose-only effect, or another doubt; inactive = no such curve, though single readings can be large or run the other way. No potency is given beside an inconclusive call; the fits are too rough.
molecular target: Aldehyde dehydrogenase 1A1 (Homo sapiens) (UniProt P00352); test: qHTS Assay for Inhibitors of Aldehyde Dehydrogenase 1 (ALDH1A1); conditions: Purified ALDH1A1, NADH fluorescence, propionaldehyde substrate; series mostly up to 75.3 µM;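 as to activity, negative = inhibition: plate controls were no enzyme wells and a reference inhibitor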
Potency is read from the fitted curve at half-maximal effect; tags tell the direction and shape of the fitted curve.

Chain of UniProt P00352 (P00352 whole entry, looked up): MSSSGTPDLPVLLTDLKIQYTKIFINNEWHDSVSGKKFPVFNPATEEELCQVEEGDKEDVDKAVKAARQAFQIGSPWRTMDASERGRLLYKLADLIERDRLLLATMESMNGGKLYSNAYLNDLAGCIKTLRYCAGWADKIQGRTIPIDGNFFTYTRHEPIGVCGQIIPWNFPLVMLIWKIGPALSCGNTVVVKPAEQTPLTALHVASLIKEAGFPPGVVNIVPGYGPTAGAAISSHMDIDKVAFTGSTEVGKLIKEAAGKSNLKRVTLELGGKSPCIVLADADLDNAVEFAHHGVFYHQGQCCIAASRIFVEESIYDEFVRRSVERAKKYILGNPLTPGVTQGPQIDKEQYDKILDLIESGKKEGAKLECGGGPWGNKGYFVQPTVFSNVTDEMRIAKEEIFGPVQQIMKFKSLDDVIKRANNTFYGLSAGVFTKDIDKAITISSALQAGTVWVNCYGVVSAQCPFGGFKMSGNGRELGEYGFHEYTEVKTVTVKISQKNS

Compound | Potency | activity, negative = inhibition
COc1ccc(C(=O)N2CCOC2CNC(=O)C(=O)NCc2ccc(Cl)cc2)cc1 (stereo not drawn) | inactive | –
Cc1cccc(C(=O)NC(=S)Nc2ccc(N3CCOCC3)cc2)c1 | inconclusive [inhibitor, single point] | –
COc1ccccc1/C=C/C=N/n1c(-c2ccccc2)n[nH]c1=S | active: 28.2 µM | –
CCOC(=O)c1nc(N)c(=O)n(-c2ccc(C)cc2)n1 | inactive | –
O=C1c2cccc3cccc(c23)C(=O)N1c1ccncc1 | inconclusive [inhibitor, single point] | –
COc1ccc(CCNc2cc(C)nc3c(-c4ccc(Cl)cc4)c(C)nn23)cc1OC | inconclusive [inhibitor, partial curve] | –
COc1ccc(/C=C2\CCCC3C2=NN(C(=O)c2scnc2C)C3c2ccc(OC)cc2)cc1 (stereo not drawn) | inconclusive [inhibitor, single point] | –
COCCCNC(=O)/C(C#N)=C/c1ccc(F)cc1 | inconclusive [inhibitor, single point] | –
COc1ccc(C(=O)N=c2sc3c(C)ccc(OC)c3n2C)cc1 | inconclusive [inhibitor, partial curve] | –
CCC(C)NC(=O)C1=C(C)C(=O)OC12CCC(C)CC2 (stereo not drawn) | inactive | –
O=C(c1cc(COc2ccc(F)cc2Cl)on1)N1CCC(OCc2cccnc2)CC1 | inactive | –
CCCn1c(=O)[nH]c(=O)c2c1nc(-c1cccs1)n2CCOC | inconclusive [inhibitor, single point] | –
CCCN=Cc1c(CCC)[nH]n(-c2nc3ccccc3s2)c1=O | active: 14.1 µM | –
NC(=O)CSc1nc2sc(-c3ccccc3)cc2c(=O)n1N | inactive | –
Cc1nc2ccccc2c2oc(C(=O)NCC3COc4ccccc4O3)cc12 (stereo not drawn) | inactive | –
CCc1cc2c(CN3CCN(C)CC3)cc(=O)oc2cc1O | inconclusive [inhibitor, partial curve] | –
CCOC(=O)C(C)Sc1ncc(-c2ccc(Cl)cc2)cn1 (stereo not drawn) | inconclusive [inhibitor, single point] | –
O=C(NNc1ccccc1[N+](=O)[O-])Nc1ccc(F)cc1 | inconclusive [inhibitor, partial curve] | –
O=C(O)c1ccccc1C(=O)Nc1cc2c(cc1Br)-c1ccccc1C2=O | – | inactive: 4.95% [at 13.5 µM]
Clc1ccc(Oc2nc3ccccc3n3cccc23)cc1 | inconclusive [inhibitor, partial curve] | –
CCOC(=O)N=Nc1c(O)n(Cc2ccccc2)c2ccccc12 | active: 8.91 µM | –
CCCNc1sc(S(=O)(=O)CCC)nc1S(=O)(=O)c1ccc(C)cc1 | active: 10 µM | –
Cc1cccc(OCC(=O)Nc2sc3c(c2C#N)CCC3)c1 | inactive | –
Cc1cc(NC(=O)CSc2nnc(-c3ccncc3)n2-c2ccc(F)cc2)no1 | inconclusive [inhibitor, partial curve] | –
CC1CC(C)CN(CC(=O)NC(c2ccccc2)c2ccccc2)C1 (stereo not drawn) | active: 11.2 µM | –

Compound | Potency | activity, negative = inhibition
O=C(COC(=O)c1ccccc1C(=O)c1ccccc1)Nc1cccc([N+](=O)[O-])c1 | inconclusive [inhibitor, single point] | –
COc1ccc(C(=O)C(CN2CCOCC2)c2ccccc2)cc1F (stereo not drawn) | inactive | –
CC(=O)Nc1cc(C(C)(C)C)c(O)c(C(C)(C)C)c1 | active: 11.2 µM | –
O=C1c2ccccc2NC(c2c(Cl)cccc2Cl)N1Cc1ccccc1 (stereo not drawn) | inconclusive [inhibitor, partial curve] | –
COc1cc(C(=O)Nc2nc(-c3ccc(F)cc3)cs2)ccc1OCC(=O)N1CCOCC1 | inconclusive [inhibitor, partial curve] | –
COc1ccc(C2CC(c3c(-c4ccccc4)c4cc(Cl)ccc4[nH]c3=O)=NN2S(C)(=O)=O)cc1 (stereo not drawn) | active: 0.398 µM | –
C/C=N/NC(=O)CCNC(=O)c1ccccc1 | inactive | –
CCNC(=S)Nc1nc2c(cc1C(=O)OCC)CCCC2 | inconclusive [inhibitor, full curve, poor fit] | –
O=C(O)c1cccc(NC(=O)C2C3C=CC(C3)C2C(=O)O)c1 (stereo not drawn) | inconclusive [inhibitor, partial curve] | –
O=C(O)c1cccc(N/N=C/c2cn(-c3ccccc3)nc2-c2cccs2)c1 | inconclusive [inhibitor, single point] | –
COC(=O)Cc1cc(=O)oc2cc(O)ccc12 | inconclusive [inhibitor, partial curve] | –
O=C(CN1CCN(c2ccc(Cl)cc2)CC1)c1ccc2c(c1)OCO2 | active: 8.91 µM | –
CC(C)c1cc(C(=O)N2CCCC(CCC(=O)NCc3ccccc3F)C2)n(C)n1 (stereo not drawn) | inactive | –
O=[N+]([O-])c1cccc2ccc(/C=C/c3cccc(Br)c3)nc12 | inactive | –
Cc1ccc(C(=O)C(c2ccccc2)N2Cc3ccccc3C2=N)cc1 (stereo not drawn) | inconclusive [inhibitor, partial curve] | –
Cc1ccc(S(=O)(=O)Nc2ccc(C(=O)OCC(=O)N(CCC#N)c3ccccc3)cc2)cc1C | inactive | –
Cc1ccc(/C=C/C(=O)Nc2cccc3ncccc23)o1 | inconclusive [inhibitor, single point] | –
COCCSc1nnc(NC(=O)C2CC(=O)N(c3ccc(Cl)cc3)C2)s1 (stereo not drawn) | inactive | –
O=Cc1ccc(N2CCCCC2)cc1 | active: 1.58 µM | –
Cc1ccc2cc(CN(Cc3ccco3)C(=O)NCc3ccccc3)c(=O)[nH]c2c1C | inconclusive [inhibitor, partial curve] | –
O=C(C1CCN(S(=O)(=O)c2cccc3nsnc23)CC1)N1CCCc2ccccc21 | inconclusive [inhibitor, single point] | –
CCOc1cc(CNc2ccc(OC)cc2)cc(Br)c1OCC(=O)NC(C)(C)C | inconclusive [inhibitor, single point] | –
CCOC(=O)C(NC(=O)N(C)C)(Nc1sc(C)c(CC)c1C#N)C(F)(F)F (stereo not drawn) | inconclusive [inhibitor, single point] | –
Cc1nnc(NC(=O)c2ccc3c(c2)C(=O)N(CCC(C)C)C3=O)s1 | inconclusive [inhibitor, partial curve] | –
CC(C)CCn1nnnc1C(c1ccccc1)N1CCC(C(N)=O)CC1 (stereo not drawn) | inconclusive [inhibitor, single point] | –

Compound | Potency | activity, negative = inhibition
O=C(Oc1cccc(Nc2ncnc3ccccc23)c1)c1ccccc1Cl | inactive | –
CNC(=S)N/N=C/c1c(C)nn(-c2ccccc2)c1Cl | inconclusive [inhibitor, single point] | –
O=C(O)Cn1cc2c(n1)CCCCC2 | inactive | –
Cn1cc(CNCc2cn(C)nc2-c2ccc(C3CCCCC3)cc2)cn1 | inactive | –
Cc1sc2nc(C3CC3)nc(SCC(=O)N3c4ccccc4CC3C)c2c1C (stereo not drawn) | inconclusive [inhibitor, single point] | –
COc1ncc2ncc(=O)n(C3CC3)c2n1 | inconclusive [inhibitor, partial curve] | –
Cn1nc(-c2ccc(Cl)cc2)c2cc(C(=O)NCCCN3CCOCC3)sc21 | inconclusive [inhibitor, partial curve] | –
CCOC(=O)C1C(c2cc(OC)c(OC)c(OC)c2)NC(=S)NC1(O)C(F)(F)F (stereo not drawn) | inconclusive [inhibitor, single point] | –
CCN1CCc2nc(NC(=O)C(c3ccccc3)c3ccccc3)sc2C1 | inconclusive [inhibitor, single point] | –
CCN1C(=O)c2ccccc2S(=O)c2ccc(C(=O)N3CCCCCC3)cc21 (stereo not drawn) | inconclusive [inhibitor, single point] | –
COc1ccc(S(=O)(=O)Nc2ccc(-n3cccc3)cc2)cc1 | inconclusive [inhibitor, partial curve] | –
Cc1cc(C)nc(Nc2ccc(C)c([N+](=O)[O-])c2)n1 | inconclusive [inhibitor, partial curve] | –
O=S(=O)(c1ccc(Cl)s1)N1CCN(Cc2ccccc2)CC1 | inactive | –
COc1ccc(OC)c(/C=N/NC(=O)CCN2CCN(C(c3ccccc3)c3ccccc3)CC2)c1 | inconclusive [inhibitor, single point] | –
CCN(CC)S(=O)(=O)c1cc(NC(=O)Cn2cnc3ccccc3c2=O)ccc1C | inconclusive [inhibitor, single point] | –
Cc1ccc(S(=O)(=O)NCCCNS(C)(=O)=O)cc1 | inconclusive [inhibitor, partial curve] | –
CCOC(=O)c1c(C)c(C(=O)NCc2ccc3c(c2)OCO3)c(C)n1CC | inconclusive [inhibitor, partial curve] | –
Nc1ccn(-c2ccc(Cl)cc2)c(=O)c1 | inconclusive [inhibitor, single point] | –
CC(=O)NNC(=O)c1sc(=S)n2c1[nH]c(=O)c1sccc12 | active: 3.55 µM | –
COc1ccc(NC(=O)c2ccc(NC(=O)CN(C)CC(=O)Nc3c(C)cccc3C)cc2)cc1 | inconclusive [inhibitor, single point] | –
O=C(CN(C1CCCCC1)S(=O)(=O)c1ccc(F)cc1)NCc1ccncc1 | inconclusive [inhibitor, partial curve] | –
COC(=O)c1c(O)cc(=O)n2c1CCCCC2 | active: 1.78 µM | –
CCCC(=O)OCCNc1cc(SCc2ccco2)c2nonc2c1[N+](=O)[O-] | active: 4.47 µM | –

From PubChem BioAssay AID1030 (National Center for Advancing Translational Sciences (NCATS), 2008)
